One compound from paper PMC7880690, “Chemical genetics and proteome-wide site mapping reveal cysteine MARylation by PARP-7 on immune-relevant protein targets” (eLife, 2021) can be followed below.

Each structure is given as a SMILES string.

Assay [1] concerns the target T1, PARP7FL (Homo sapiens, UniProt Q7Z3E1).
T1 sequence (Q7Z3E1 1-657): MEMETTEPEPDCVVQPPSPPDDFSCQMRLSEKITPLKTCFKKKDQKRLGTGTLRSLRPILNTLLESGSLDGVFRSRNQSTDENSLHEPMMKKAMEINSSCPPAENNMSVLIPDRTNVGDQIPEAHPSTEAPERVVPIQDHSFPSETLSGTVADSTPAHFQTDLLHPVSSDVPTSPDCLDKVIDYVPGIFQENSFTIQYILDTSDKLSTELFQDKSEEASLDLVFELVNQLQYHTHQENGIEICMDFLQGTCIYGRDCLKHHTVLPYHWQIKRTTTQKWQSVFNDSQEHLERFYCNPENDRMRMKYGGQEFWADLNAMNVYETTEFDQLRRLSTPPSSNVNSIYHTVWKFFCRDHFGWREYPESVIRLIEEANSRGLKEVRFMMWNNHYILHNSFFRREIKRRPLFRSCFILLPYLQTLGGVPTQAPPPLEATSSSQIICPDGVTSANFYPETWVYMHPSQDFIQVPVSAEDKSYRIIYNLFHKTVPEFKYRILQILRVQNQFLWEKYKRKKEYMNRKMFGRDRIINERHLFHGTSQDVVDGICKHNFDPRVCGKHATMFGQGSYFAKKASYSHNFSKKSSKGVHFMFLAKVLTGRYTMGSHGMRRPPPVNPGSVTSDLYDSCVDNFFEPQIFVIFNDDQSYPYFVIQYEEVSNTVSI
As to the kind of experiment: ADP-ribosylation plate assay, PARP7FL.

The subject of assay [2] is PARP-13.1. As to the kind of experiment: Endogenous PARP-13.1 protein levels in A549 cells, western blot. The note with it: A549 cells treated with Phthal01. Background: Immunoblotting shows a protein as a band on a membrane.

With `N#Cc1ccc(N2CCN(C(=O)c3cc(Cc4n[nH]c(=O)c5ccccc45)ccc3F)CC2)nc1` [Phthal01, 6-(4-(2-fluoro-5-((4-oxo-3,4-dihydrophthalazin-1-yl)methyl)benzoyl)piperazin-1-yl)nicotinonitrile], the half-maximal inhibitory concentration (IC50) in assay [1] was determined as 14 nM. Besides, the “levels of endogenous PARP-13.1” value in assay [2] is listed as “did not change”.

Broadly, the IC50 is the concentration that inhibits the measured activity by half. A low value points to greater potency in that assay.
